Measured values taken from PubChem BioAssay AID493208 (National Center for Advancing Translational Sciences (NCATS), 2011).
Out of some 44,000 compounds screened, about 340 (0.77%) were called active. Not shown: some 5% with an inconclusive outcome. Calls follow the shape of the dose curve; as a rule, active = well fitted inhibition curve with a large enough effect; inconclusive = small, poorly fitted or top-dose-only effect; inactive = flat fitted curve, though single readings scatter. The list shows a part of the results.

Test: Acumen qHTS Assay for Inhibitors of the mTORC1 Signaling Pathway in MEF (Tsc2-/-, p53-/-) Cells: Sytravon;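 also: plate controls were DMSO for no effect and rapamycin for full effect; nearly all actives have a fitted effect of over 50% in size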
Settings: phospho-rpS6 immunofluorescence/PI, 24 h; series mostly up to 38.3 µM; activity change, negative = inhibition: at the top concentration
Method in brief: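 Immunofluorescence of rpS6 phosphorylation in Tsc2-/-, p53-/- MEFs after 24 h compound exposure, normalized to propidium iodide signal. Activity is expressed as % positive cells, thresholded with 7.5 nM rapamycin.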

Activity change, negative = inhibition, inactive:
CCCOc1cccc(C(=O)N(Cc2sccc2C)C2CCS(=O)(=O)C2)c1 (stereo unspecified) -6.13%, CC(C)OCCCNC(=O)CN1C(=O)c2cccnc2Sc2ccccc21 -10.6%, O=C(Cn1cc(SCc2c(F)cccc2Cl)c2ccccc21)N1CCCCC1 -22.5%, Cn1c(=O)n(Cc2ccccc2)c(=O)c2c1nc1n2CCN1c1ccccc1 5.08%, CCN(CC)CCNC(=O)CN1N=C(c2ccc(OC)cc2)CCC1=O -0.437%, Cc1cccn2cc(-c3cccc(NC(=O)C(C)C)c3)nc12 -11.9%, CCN(CC)CCNC(=O)C(=O)NCC(c1ccc2c(c1)OCO2)N1CCOCC1 (stereo unspecified) -2.29%, COCc1cc(C)nc2c1C(=O)NC(c1ccc(C)cc1)N2Cc1ccccc1 (stereo unspecified) -11.2%, O=C(CSc1cn(CC(=O)N2CCCCC2)c2ccccc12)NCc1ccccc1 3.41%, CCOc1ccc(-c2nnc(SCC(=O)NCc3ccccc3Cl)o2)cc1 3.73%, CCCN1C(=O)c2[nH]nc(-c3ccccc3)c2C1c1cccc(O)c1 (stereo unspecified) -11.2%, Cc1ccc(NC(=O)c2oc3ccccc3c2NC(=O)Cc2ccccc2)cc1 -2.45%, CCOc1ccc(S(=O)(=O)N2CCN(c3cccc(C(F)(F)F)c3)CC2)cc1OCC -4.05%, COc1ccccc1NC(=O)CSC1=Nc2ccccc2C2=NC(Cc3ccccc3)C(=O)N12 (stereo unspecified) 6.16%, CCc1nc2c(cnn2-c2ccc(C)cc2)c(=O)n1Cc1ccccc1 0.952%, Cc1cc(C)c(S(=O)(=O)NCC(c2ccco2)N2CCOCC2)c(C)c1 (stereo unspecified) 3.82%, CCOC(=O)N1CCc2c(sc3c2c(=O)n(Cc2ccccc2)c(=O)n3Cc2cccc(C)c2)C1 -1%, CCc1ccc(NC(=O)Cn2c(=O)n(CCCCC(=O)NCc3ccccc3Cl)c(=O)c3ccccc32)cc1 2.64%, COc1ccc(NC(=O)c2cc(C)nc3c2c(C)nn3-c2ccc(C)cc2)cc1OC 1.09%, COc1ccccc1-c1nnc(C2CCN(C(=O)c3cccc(C)c3)CC2)o1 4.3%, COc1cccc(Cn2c(=O)n(-c3cccc(Cl)c3)c(=O)c3c4c(sc32)CN(C(C)=O)CC4)c1 -1.71%, C=CCC(CC=C)(CNC(=O)C(=O)Nc1ccc(C)cc1)c1ccccc1 -4.7%, CCOc1ccc(NC(=O)CN2CCN(S(=O)(=O)c3ccc(OC)cc3)CC2)cc1 -5.76%, CCOc1cc(OCC)cc(C(=O)Nc2cccc(-c3nc4ccccc4[nH]3)c2)c1 -21.2%, CCn1c(=O)cc(OCC(=O)NCc2ccccc2OC)c2ccccc21 -17.4%, Cc1c2cnn(CC(=O)N3CCN(c4ccccc4)CC3)c(=O)c2c(C)n1Cc1ccccc1Cl -6.36%, CCCCN(C)CCCNC(=O)C1CCN(S(=O)(=O)CC)CC1 5.84%, CSc1ncc(Cl)c(C(=O)Nc2ccc(S(=O)(=O)Nc3nccc(C)n3)cc2)n1 4.79%, CC(=O)c1ccc(NC(=O)CCc2c(C)nc3c(c2C)c(=O)n(C)c(=O)n3C)cc1 -0.286%, CC(=O)C1=C(c2ccccc2)N(C(C)=O)n2c(nnc2C2CCCCC2)S1 -22.1%, CCCCN(C)CCCNC(=O)CN1N=C(c2ccc(OC)cc2)CCC1=O 0.311%, Cc1ccc(CCNC(=O)c2ccc3[nH]c(C)c(C)c3c2)cc1 -1.63%, Cc1cc(C)cc(-n2cnc3cc(C(=O)NC4CCCCCC4)ccc32)c1 2.16%, O=C(NCc1ccccc1F)c1sc2ncccc2c1-n1cccc1 1.2%, CCn1cc2nc(SCC(=O)Nc3ccc(C)cc3)n(Cc3ccc(C)cc3)c(=O)c2n1 -4.94%, CCN(CC)c1ccc(NC(=O)CN2CCN(c3ccccc3F)CC2)cc1 0%, Cc1[nH]c2ccc(Br)cc2c1CCNC(=O)c1cc2ccccc2oc1=O -16%, CCOc1ccc(C2=NC(c3cccs3)=Nc3ccc(CC)cc3N2)cc1OCC -10.1%, O=S(=O)(NCCS(=O)(=O)N1CCN(c2cccc(Cl)c2)CC1)c1ccc(F)cc1 2.1%, CC(=O)N1CCCc2cc(S(=O)(=O)N3CCCC(C(=O)Nc4ccc(C)cc4C)C3)ccc21 (stereo unspecified) -0.0922%, COc1ccc(-n2nc3cc(C)c(NC(=O)c4ccc(-c5ccc(Br)cc5)o4)cc3n2)cc1 -0.38%, COc1cc(OC)cc(C(=O)Nc2cc3c(cc2N2CCOCC2)n(C)c(=O)n3C)c1 -19.3%, Cc1cc(C)n(CCc2nc3c4ccccc4nc(N4CCN(c5cccc(C)c5C)CC4)n3n2)n1 -0.153%, Cc1cccc(NC(=O)CN2C(=O)C(c3ccccc3)=NC23CCC(C)CC3)c1 (stereo unspecified) -2.38%, CC(=O)c1cccc(-n2c(=O)c3c4c(sc3n(Cc3cccc(C)c3)c2=O)CN(C(C)=O)CC4)c1 -0.271%, CCOc1ccccc1CNC(=O)CCc1c(C)nn(-c2ccc(N3CCCC3)nn2)c1C 7.15%, Cc1ccc(/C=C(\C#N)c2nc(-c3ccc(-c4ccccc4)cc3)cs2)cc1 -6.17%, CCOC(=O)c1cccc(NC(=O)CCS(=O)(=O)c2ccc3c(c2)CC(=O)N3C)c1 -6.6%, Cc1ccc(S(=O)(=O)C2(C(=O)Nc3ccc(Cl)c(C(F)(F)F)c3)CC2)cc1 2.24%, CC(C)c1ccc(NC(=O)Cn2c(=O)n(CC3CCC(C(=O)NCCc4ccccc4)CC3)c(=O)c3ccccc32)cc1 (stereo unspecified) -20.6%, COC(=O)c1ccc(Cl)cc1NC(=O)NCCc1c(C)nn(C)c1C 0%, Cc1c(C(=O)N2CCOCC2)oc2c1-c1nn(CC(=O)NCc3cccc(F)c3)cc1CC2 -2.38%, Cc1ccc(-n2c(=O)c3cccnc3n2CC(=O)Nc2cc(C)cc(C)c2)cc1 -0.0454%, COc1ccccc1CNC(=O)Cn1c(=O)nc(-c2ccccc2F)c2cc(Cl)ccc21 0%, COc1ccc(-n2ccnc2SCC(=O)Nc2ccc3c(c2)OCO3)cc1 -11%, CCOC(=O)c1c(C)[nH]c(C)c1S(=O)(=O)N1CCC(C(=O)Nc2cc(C)ccn2)CC1 -0.454%, Cc1ccc(Cl)cc1N1CCN(C(=O)C2CCC(CNS(=O)(=O)c3cccs3)CC2)CC1 (stereo unspecified) -2.9%, Cc1cccc(N2CCN(C(=O)CS(=O)(=O)c3cccc4nsnc34)CC2)c1C -0.351%, Cc1ccc(CNc2ccc(-c3nc(-c4ccncc4)no3)cc2[N+](=O)[O-])cc1 0.323%, Cc1ccc(-c2nc(S(=O)(=O)c3ccccc3)c(N3CCN(c4ccccc4)CC3)o2)cc1 1.3%, Cc1ccc2nc(COc3ccccc3NC(=O)COc3ccc(F)cc3)cc(=O)n2c1 -19.2%
